Reference: the supplement of paper PMC4166925
± gives the standard deviation of the averaged measurements. In all, about 33,000 sequences were measured (“E-score (dimensionless, -0.5 to 0.5)”: median about -0.046, highest 2% from about 0.36 on). The list shows a part of the results.

tested on: T1, SpTbr T-box DNA-binding domain (GST fusion); experiment: PBM E-score of 8-mer (E-score (dimensionless, -0.5 to 0.5)); Tbr is Tbrain of the sea star Patiria miniata (Pm) or the sea urchin Strongylocentrotus purpuratus (Sp); higher = stronger binding preference; most listed sequences are background and not binding sites; settings: the construct has about 5 more residues each side
T1 sequence: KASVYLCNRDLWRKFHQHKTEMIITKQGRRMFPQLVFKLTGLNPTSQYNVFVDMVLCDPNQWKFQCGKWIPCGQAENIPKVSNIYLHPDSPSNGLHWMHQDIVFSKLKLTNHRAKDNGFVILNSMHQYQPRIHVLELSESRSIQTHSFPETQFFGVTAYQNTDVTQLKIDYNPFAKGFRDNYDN
Method in brief: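 Primer extension turned Universal Agilent oligonucleotide arrays double-stranded. They were incubated with 200 nM protein in PBS (pH 7.5); the protein was a GST-fused Tbr T-box DNA-binding domain expressed in BL21 E. coli at 20 °C and purified on glutathione. Every ungapped 8-mer was scored from the scanned, quantified probe intensities, and the Universal PBM Analysis Suite gave each an enrichment E-score averaged over duplicate arrays.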

Sequence | PBM E-score of 8-mer
CGCCGAAG | -0.157 ± 0.043
ACCACTGG | 0.0214 ± 0.011
GCCCAGGC | -0.187 ± 0.059
ACTGCAAT | 0.0547 ± 0.048
ACTCGCGA | 0.3822 ± 0.0018
GACGCGCC | 0.126 ± 0.12
AGCAGCAG | -0.2678 ± 0.0013
CGACCACA | 0.191 ± 0.044
ACAATTCC | -0.113 ± 0.0042
ACAACGAA | -0.136 ± 0.041
AGCTGGAG | -0.184 ± 0.011
ATGCGCCC | -0.24 ± 0.028
ATCGTTTA | 0.0678 ± 0.1
CGTTGGGA | -0.121 ± 0.024
TGAATAAA | 0.07 ± 0.1
GACAGTAA | 0.171 ± 0.015
ATGAAGGG | -0.2 ± 0.029
CTACGGAG | -0.282 ± 0.033
GCCAGACC | -0.0946 ± 0.049
AGGGCTTG | -0.26 ± 0.036
CAAGCTAC | -0.147 ± 0.014
CGGGATAG | -0.0195 ± 0.046
CCCCTAGC | -0.187 ± 0.036
GGCACGCA | 0.0415 ± 0.024
ACAGTAAC | 0.143 ± 0.002

Sequence | PBM E-score of 8-mer
ACGCGGGG | 0.0235 ± 0.015
CACTGCTA | 0.13 ± 0.011
AACTAGTG | 0.0896 ± 0.072
CGTCCGAG | -0.236 ± 0.0068
CAATCCTA | -0.0316 ± 0.041
AGTCGGGG | -0.15 ± 0.0087
AGACCTAG | -0.262 ± 0.071
GGCTGACC | -0.102 ± 0.043
ATAGGCGA | 0.0635 ± 0.033
GATAACCA | -0.0424 ± 0.067
CGGTCTAC | -0.0378 ± 0.013
AACAATCG | 0.0971 ± 0.0099
CGTTAGTA | 0.152 ± 0.026
CGACGAGC | -0.127 ± 0.068
ACTGGGGC | -0.11 ± 0.024
CCTTAAGC | -0.0651 ± 0.0015
TCGGAGAA | -0.147 ± 0.071
TCGAGCAA | -0.0452 ± 0.042
AGGACATG | -0.121 ± 0.05
CGGACTTA | -0.29 ± 0.053
GACAGGTC | 0.19 ± 0.032
GCAGGCGA | 0.0822 ± 0.01
CAGCGTTA | 0.122 ± 0.026
TAAATAAA | -0.0938 ± 0.088
ACTAAGTA | -0.237 ± 0.06

Sequence | PBM E-score of 8-mer
AAGGGCGC | 0.131 ± 0.0052
CCGGCCAC | 0.0369 ± 0.11
AGGTATGC | -0.00842 ± 0.034
CATCTACC | -0.123 ± 0.039
ATAGTGCG | 0.169 ± 0.021
AACACGGA | -0.0154 ± 0.026
CAAAAATG | -0.167 ± 0.085
AAAGGTTG | 0.0806 ± 0.034
CCTGACGC | 0.248 ± 0.017
AGGACAGG | -0.214 ± 0.028
CTATTTGA | -0.258 ± 0.014
GAAGATAC | -0.0451 ± 0.039
TAATGTCA | -0.0899 ± 0.017
CCCACCCA | 0.185 ± 0.054
AACTAGGA | -0.291 ± 0.027
AACTATGG | -0.272 ± 0.00047
GCTAGGCC | -0.218 ± 0.025
AGTATTAT | -0.205 ± 0.093
AGAACTTC | -0.123 ± 0.047
ACCAGAGA | 0.0337 ± 0.016
GGCGAATA | 0.0396 ± 0.11
GCACTAAA | 0.161 ± 0.031
GTTAACGA | 0.274 ± 0.033
CAGCTGGA | -0.271 ± 0.033
ACTGGACG | 0.0312 ± 0.041

Sequence | PBM E-score of 8-mer
AGATTGTC | 0.204 ± 0.012
GGAGTCAA | -0.0304 ± 0.04
AAATACGT | -0.0235 ± 0.059
CTCTGCGA | -0.00686 ± 0.039
CTCGTTAC | -0.116 ± 0.031
TATGTCGA | -0.00544 ± 0.04
AAGGCTCC | -0.175 ± 0.025
CCGACCCC | -0.208 ± 0.015
CTTGTCTA | -0.118 ± 0.0089
AACGAACG | -0.0965 ± 0.0026
CTATCACC | 0.363 ± 0.01
AGATCCCA | -0.01 ± 0.053
AGACGCTC | -0.111 ± 0.057
CTTCTTGA | -0.0972 ± 0.025
CTTTACAA | -0.00219 ± 0.03
AAGCGCTG | -0.0202 ± 0.041
CTCAAGGA | -0.074 ± 0.0048
TCAGCCGA | -0.139 ± 0.054
ACCCATAG | -0.16 ± 0.025
AAGACCTC | 0.00991 ± 0.032
GCAGGACA | -0.0639 ± 0.0049
CCTCGCTA | 0.176 ± 0.0058
CTGTTACA | 0.255 ± 0.034
ATATAAGA | -0.259 ± 0.032
ACCCGTTA | 0.194 ± 0.072

Sequence | PBM E-score of 8-mer
AAATAAGA | -0.0971 ± 0.0036
CAATGCTA | -0.125 ± 0.0024
CGTTTGCA | 0.144 ± 0.025
CCGCTCGC | 0.16 ± 0.068
CAAGGAAC | -0.142 ± 0.03
AGGCCAAA | -0.239 ± 0.064
CTGTCGAA | 0.14 ± 0.011
AGTGATAA | 0.278 ± 0.067
AAGATTCG | -0.0796 ± 0.047
GCTTAAGA | -0.247 ± 0.093
AAAGCAAG | -0.0849 ± 0.05
AGCTAACG | 0.236 ± 0.016
ATGCAGAC | -0.142 ± 0.014
TCAGGCAA | -0.143 ± 0.02
CCCATGAA | -0.0823 ± 0.044
CTTCCAAA | -0.239 ± 0.021
CGGAGCTC | -0.317 ± 0.066
AACAAATG | -0.00755 ± 0.028
CCTTTTAC | 0.0526 ± 0.015
ACTTAGAT | 0.0897 ± 0.095
GGACATAC | -0.00067 ± 0.081
CCCGCGAA | 0.371 ± 0.019
ATCGTAAG | -0.124 ± 0.024
AGTAAAAC | -0.11 ± 0.027
ACTGCCGC | -0.0781 ± 0.058

Sequence | PBM E-score of 8-mer
CGTGCATC | -0.1 ± 0.096
GAAGATCC | -0.101 ± 0.0088
CAGCTAGA | -0.0759 ± 0.0079
AACGTTTG | 0.0583 ± 0.0087
CATAGAAC | -0.0496 ± 0.053
AGATAACA | 0.233 ± 0.0033
GTGCTCTA | -0.178 ± 0.029
CCCTCTGC | -0.0643 ± 0.042
CCGATACA | 0.0669 ± 0.01
CTCAAACC | -0.13 ± 0.14
AATGGCGG | -0.148 ± 0.066
ATGCTGCG | -0.0119 ± 0.022
CCATCTTA | -0.1 ± 0.069
CACAGTAG | 0.2015 ± 0.0019
CGAGGGAG | -0.0399 ± 0.058
ACTAGTTG | 0.122 ± 0.026
GTACAGAC | -0.0773 ± 0.037
AATCGGTC | 0.0169 ± 0.09
AAGTCTGG | -0.157 ± 0.017
ATCATATG | -0.0751 ± 0.011
CAGCAGCA | -0.0652 ± 0.075
AGTCTGCA | 0.0204 ± 0.025
GATAACGA | 0.0769 ± 0.01
GACTCGCA | 0.221 ± 0.024
ATGTAGAG | -0.247 ± 0.0037

Sequence | PBM E-score of 8-mer
ATCCATCG | -0.0451 ± 0.031
CCCTCTAG | 0.0174 ± 0.018
CACAATGA | 0.0327 ± 0.0024
CAAAATTG | -0.121 ± 0.018
AACCCGGC | -0.109 ± 0.003
AGTCGGGA | 0.138 ± 0.014
GACTGCGC | -0.0942 ± 0.032
TAGGGGCA | -0.127 ± 0.04
CTTTAAAC | -0.114 ± 0.023
CGGATGAA | -0.224 ± 0.015
GCTCTTCA | 0.083 ± 0.029
CATACTCA | -0.0655 ± 0.046
ATAAAACA | -0.0605 ± 0.11
ACCTCGTA | 0.0632 ± 0.0068
CGCCACAC | 0.3647 ± 0.0013
CCATAGCA | -0.0599 ± 0.038
AGAGAAGG | -0.0187 ± 0.024
ATTGAATC | 0.0273 ± 0.028
ATTTCACG | 0.293 ± 0.04
AGACTAAG | -0.306 ± 0.022
GAGCTTGA | -0.181 ± 0.062
CGGAACCC | -0.267 ± 0.031
ACCTGCTA | 0.275 ± 0.02
ACTTATCC | -0.222 ± 0.015
AGTTGAGG | -0.0911 ± 0.054

Sequence | PBM E-score of 8-mer
GCCTGGAC | -0.13 ± 0.055
AAGGTTTC | 0.00098 ± 0.069
GCGTCTAA | 0.104 ± 0.11
AAATACTC | -0.0243 ± 0.0069
AGGTCGCG | 0.26 ± 0.015
ACCTACCA | 0.157 ± 0.046
CGAGAGGC | 0.0435 ± 0.0085
CGCTAGAA | 0.0429 ± 0.024
ATGGCGGG | -0.102 ± 0.061
CGGCAGCA | 0.0185 ± 0.12
TCGTGGCA | 0.0699 ± 0.038
GCGCTTAA | 0.101 ± 0.028
CGACTTCC | -0.19 ± 0.067
GTCCGCAA | 0.157 ± 0.016
ATGGCAGG | -0.0716 ± 0.0039
GGAGTCAC | 0.128 ± 0.0043
GCCTTTCA | 0.0318 ± 0.044
AGACAAGG | -0.189 ± 0.016
ATGGGCGA | 0.118 ± 0.042
ACTATGAA | -0.145 ± 0.031
CGCAGCTC | 0.113 ± 0.016
CCTATTGC | -0.11 ± 0.032
AAATACCT | -0.0934 ± 0.019
AAATTCTC | 0.0483 ± 0.096
GCATGGGA | -0.2057 ± 0.0015

Sequence | PBM E-score of 8-mer
CGACCTGA | 0.103 ± 0.0024
GATCCCAA | -0.242 ± 0.0063
ACACTGGA | -0.0769 ± 0.013
GCTGTATA | -0.0459 ± 0.019
AACGCCGT | 0.211 ± 0.029
AATCAGCG | 0.0273 ± 0.076
GACATACA | 0.00383 ± 0.015
ACTAACTG | 0.0784 ± 0.08
CATTTGTC | -0.0214 ± 0.013
GTAGAGGA | -0.227 ± 0.076
GCCAGAGA | -0.0994 ± 0.031
CATGAGGG | -0.14 ± 0.053
ACCCTCGG | -0.124 ± 0.045
CATACTGA | -0.182 ± 0.06
GAAGGTTA | -0.12 ± 0.012
CCCTTGAG | -0.102 ± 0.028
GCCACTGA | 0.0996 ± 0.035
ATAACTTC | 0.0225 ± 0.0034
AAGGAGGA | -0.255 ± 0.078
